Results: PMC6919601, “Identification of Plasmodium dipeptidyl aminopeptidase allosteric inhibitors by high throughput screening” (PLoS ONE, 2019)
Among all 110,000 compounds or so, about 230 (0.21%) showed an effect of 50% or more. The list shows a part of the results.

Each compound was assayed against DPAP1 (Plasmodium falciparum, UniProt Q8IIJ9) (assay: primary screen, percent inhibition; read by cleavage of a fluorogenic dipeptide substrate; higher = more effect of the substance).
Set-up: species or system P. falciparum D10 trophozoite lysates; single well
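Note: 30 min substrate incubation versus DMSO and 10 µM JCP410 controls.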

DPAP1, sequence (Q8IIJ9 whole entry, looked up): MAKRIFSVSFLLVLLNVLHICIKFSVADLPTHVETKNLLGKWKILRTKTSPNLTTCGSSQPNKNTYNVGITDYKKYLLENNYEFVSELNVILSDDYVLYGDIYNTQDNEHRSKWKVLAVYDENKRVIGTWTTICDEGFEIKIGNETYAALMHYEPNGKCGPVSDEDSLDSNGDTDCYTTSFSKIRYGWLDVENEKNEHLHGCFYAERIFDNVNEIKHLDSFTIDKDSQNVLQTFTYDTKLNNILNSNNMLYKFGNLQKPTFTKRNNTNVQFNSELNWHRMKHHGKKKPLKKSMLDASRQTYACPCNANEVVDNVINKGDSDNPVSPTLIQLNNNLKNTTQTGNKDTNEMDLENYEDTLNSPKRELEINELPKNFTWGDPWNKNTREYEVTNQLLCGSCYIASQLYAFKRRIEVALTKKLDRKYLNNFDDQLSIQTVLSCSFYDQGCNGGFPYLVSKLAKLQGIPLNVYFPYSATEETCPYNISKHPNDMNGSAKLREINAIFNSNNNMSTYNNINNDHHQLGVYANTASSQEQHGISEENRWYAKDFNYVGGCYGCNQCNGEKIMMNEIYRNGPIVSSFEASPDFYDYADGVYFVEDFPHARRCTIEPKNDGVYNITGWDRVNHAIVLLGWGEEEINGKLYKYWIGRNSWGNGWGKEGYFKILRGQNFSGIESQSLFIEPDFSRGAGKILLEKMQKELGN

Structure (SMILES) | % Inhibition @ 10 uM
Cc1nnc(N2CCCC(C(=O)NCCCOC(C)C)C2)c2nn(-c3ccccc3)c(C)c12 (stereo not shown) | 5.36%
C=CCOCC(O)CSCc1ccc(Cl)cc1 (stereo not shown) | 1.7%
N#CC1(NC(=O)[C@H](CC2CCCCC2)N[C@@H](c2cccc(-c3cccc(CO)c3)c2)C(F)(F)F)CC1 | -4.82%
CCCn1nnc(C(=O)N2CCCCC2)c1-c1ccccc1O | -4.35%
CSC1=NC2(CCN(S(=O)(=O)Cc3ccccc3)CC2)N=C1c1ccccc1 | -1.23%
Cc1ccc(OCCOCCN2CCNCC2)cc1C | -2.05%
CCN(CC)C(=O)/C(=C/c1ccccc1)NC(=O)c1ccco1 | -4.7%
N#CCNC(=O)[C@H](CS(=O)(=O)Cc1ccccc1)NC(=O)c1ccc2ccccc2n1 | 1.35%
C=CCNC(=O)CN(CCc1ccccc1)S(=O)(=O)c1ccccc1 | -1.6%
CC1CCCCN1S(=O)(=O)c1ccc(C(=O)Nc2ccccc2F)cc1 (stereo not shown) | -0.171%
Clc1ccccc1OCc1nc(-c2ccc(-n3cccc3)cc2)no1 | -1.86%
CNCC(O)COc1ccc(Cl)c(C)c1 (stereo not shown) | -2.91%
CCOC(=O)c1c(C)nc(Nc2nc3ccccc3o2)nc1CSc1ccc(C)cc1 | 5.5%
CC(=O)N/C(=C/c1ccc2c(c1)OCO2)C(=O)NC(Cc1ccccc1)C(=O)O (stereo not shown) | -4.7%
O=C1C2CCCCN2C(=O)N1CCCN1CCN(c2cccc(C(F)(F)F)c2)CC1 (stereo not shown) | 1.39%
Nc1cccnc1NCc1ccccc1 | 2.34%
CCC(C)(C)C1CCc2c(sc(NC(=O)c3cc(OC)cc(OC)c3)c2C(N)=O)C1 (stereo not shown) | 6.39%
COc1cccc2c1OC(CCSC)N1N=C(c3cc(Cl)ccc3O)CC21 (stereo not shown) | -1.68%
O=C(O)c1[nH]cc2c3cccnc3c3ncccc3c12 | 0.245%
COc1ccccc1N1CCN(Cc2ccccc2C(F)(F)F)CC1 | -3.99%
CC(=O)N1CCc2c([nH]c3ccccc23)C1c1ccc2c(c1)OCO2 (stereo not shown) | -3.44%
CCOc1ccc(-c2cnc(NCc3cc(OC)ccc3OC)n2C)cc1 | -2.91%
COc1ccccc1-n1c(S)nnc1CNC(=O)c1cc(OC)c(OC)c(OC)c1 | 6.23%
O=C(Cc1ccc(F)cc1)NCCn1ccc2ccccc21 | 3.04%
COCc1nc2ccccc2n1CCCOc1cccc(C)c1 | -0.551%
O=C(NCCc1ccccc1)C1c2ccccc2C(=O)N1CCc1ccccc1 (stereo not shown) | 1.76%
Cc1nc2c3ccccc3nc(SCc3ccc(Cl)cc3)n2n1 | -6.64%
COC(F)(C(=O)Nc1cc(Br)cc2cccnc12)C(F)(F)F (stereo not shown) | 5.14%
